# Measured values: the supplement of paper PMC8728848
# This is one part of the list.
# What was measured:
# Assay in all cases: glycan array binding signal (z-score within array); higher = stronger binding
# Conditions in all cases: glycan notation: IUPAC condensed, linker removed
# [1] = molecular target: GlcNAc(b1-3)Gal(b1-4)GlcNAc(b1-3)Gal(b1-4)GlcNAc(b1-2)Man(a1-3)[GlcNAc(b1-3)Gal(b1-4)GlcNAc(b1-3)Gal(b1-4)GlcNAc(b1-2)Man(a1-6)]Man(b1-4)GlcNAc(b1-4)GlcNAc
# How it was run: (§1)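 Negative Z-scores can be read as non-binding. The Z-score is calculated within each array and then averaged across arrays of one protein sequence at different concentrations or buffers and across linkers. Arrays, 3228 in all, were curated from the Consortium for Functional Glycomics database and kept only where the protein sequence was available.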
# [2] = molecular target: GlcNAc(b1-3)Gal(b1-4)GlcNAc(b1-3)Gal(b1-4)GlcNAc(b1-2)Man(a1-3)[GlcNAc(b1-3)Gal(b1-4)GlcNAc(b1-3)Gal(b1-4)GlcNAc(b1-2)Man(a1-6)]Man(b1-4)GlcNAc(b1-4)[Fuc(a1-6)]GlcNAc
# How it was run: as §1
# [3] = molecular target: GlcNAc(b1-3)Gal(b1-4)GlcNAc(b1-3)Gal(b1-4)GlcNAc(b1-2)[GlcNAc(b1-3)Gal(b1-4)GlcNAc(b1-3)Gal(b1-4)GlcNAc(b1-6)]Man(a1-6)[GlcNAc(b1-3)Gal(b1-4)GlcNAc(b1-3)Gal(b1-4)GlcNAc(b1-2)Man(a1-3)]Man(b1-4)GlcNAc(b1-4)[Fuc(a1-6)]GlcNAc
# How it was run: as §1
# [4] = molecular target: GlcNAc(b1-3)Gal(b1-4)GlcNAc(b1-3)Gal(b1-4)GlcNAc(b1-3)Gal(b1-4)GlcNAc(b1-2)Man(a1-3)[GlcNAc(b1-3)Gal(b1-4)GlcNAc(b1-3)Gal(b1-4)GlcNAc(b1-3)Gal(b1-4)GlcNAc(b1-2)Man(a1-6)]Man(b1-4)GlcNAc(b1-4)GlcNAc
# How it was run: as §1
# [5] = molecular target: GlcNAc(b1-3)Gal(b1-4)GlcNAc(b1-3)Gal(b1-4)GlcNAc(b1-3)Gal(b1-4)GlcNAc(b1-2)Man(a1-3)[GlcNAc(b1-3)Gal(b1-4)GlcNAc(b1-3)Gal(b1-4)GlcNAc(b1-3)Gal(b1-4)GlcNAc(b1-2)Man(a1-6)]Man(b1-4)GlcNAc(b1-4)[Fuc(a1-6)]GlcNAc
# How it was run: as §1
# [6] = molecular target: GlcNAc(b1-3)Gal(b1-4)GlcNAc(b1-3)Gal(b1-4)GlcNAc(b1-3)Gal(b1-4)GlcNAc(b1-2)[GlcNAc(b1-3)Gal(b1-4)GlcNAc(b1-3)Gal(b1-4)GlcNAc(b1-3)Gal(b1-4)GlcNAc(b1-6)]Man(a1-6)[GlcNAc(b1-3)Gal(b1-4)GlcNAc(b1-3)Gal(b1-4)GlcNAc(b1-3)Gal(b1-4)GlcNAc(b1-2)Man(a1-3)]Man(b1-4)GlcNAc(b1-4)[Fuc(a1-6)]GlcNAc
# How it was run: as §1
# [7] = molecular target: GlcNAc(b1-3)Gal(b1-4)GlcNAc(b1-3)Gal(b1-4)GlcNAc(b1-3)Gal(b1-4)GlcNAc(b1-3)Gal(b1-4)GlcNAc(b1-2)Man(a1-3)[GlcNAc(b1-3)Gal(b1-4)GlcNAc(b1-3)Gal(b1-4)GlcNAc(b1-3)Gal(b1-4)GlcNAc(b1-3)Gal(b1-4)GlcNAc(b1-2)Man(a1-6)]Man(b1-4)GlcNAc(b1-4)GlcNAc
# How it was run: as §1
# [8] = molecular target: GlcNAc(b1-3)Gal(b1-4)GlcNAc(b1-3)Gal(b1-4)GlcNAc(b1-3)Gal(b1-4)GlcNAc(b1-3)Gal(b1-4)GlcNAc(b1-2)Man(a1-3)[GlcNAc(b1-3)Gal(b1-4)GlcNAc(b1-3)Gal(b1-4)GlcNAc(b1-3)Gal(b1-4)GlcNAc(b1-3)Gal(b1-4)GlcNAc(b1-2)Man(a1-6)]Man(b1-4)GlcNAc(b1-4)[Fuc(a1-6)]GlcNAc
# How it was run: as §1
# [9] = molecular target: GlcNAc(b1-3)Gal(b1-4)GlcNAc(b1-3)Gal(b1-4)GlcNAc(b1-3)Gal(b1-4)GlcNAc(b1-3)Gal(b1-4)GlcNAc(b1-2)[GlcNAc(b1-3)Gal(b1-4)GlcNAc(b1-3)Gal(b1-4)GlcNAc(b1-3)Gal(b1-4)GlcNAc(b1-3)Gal(b1-4)GlcNAc(b1-6)]Man(a1-6)[GlcNAc(b1-3)Gal(b1-4)GlcNAc(b1-3)Gal(b1-4)GlcNAc(b1-3)Gal(b1-4)GlcNAc(b1-3)Gal(b1-4)GlcNAc(b1-2)Man(a1-3)]Man(b1-4)GlcNAc(b1-4)[Fuc(a1-6)]GlcNAc
# How it was run: as §1
# [10] = molecular target: GlcNAc(b1-3)Gal(b1-4)GlcNAc(b1-3)Gal(b1-4)GlcNAc(b1-3)GalNAc
# How it was run: as §1
# [11] = molecular target: GlcNAc(b1-3)Gal(b1-4)GlcNAc(b1-3)GalNAc
# How it was run: as §1
# [12] = molecular target: GlcNAc(b1-3)Gal(b1-4)GlcNAc(b1-3)[GlcNAc(b1-3)Gal(b1-4)GlcNAc(b1-3)]GalNAc
# How it was run: as §1
# [13] = molecular target: GlcNAc(b1-3)Gal(b1-4)GlcNAc(b1-6)[Gal(b1-3)]GalNAc
# How it was run: as §1
# [14] = molecular target: GlcNAc(b1-3)Gal(b1-4)GlcNAc(b1-6)[GlcNAc(b1-3)Gal(b1-3)]GalNAc
# How it was run: as §1
# [15] = molecular target: GlcNAc(b1-3)Gal(b1-4)GlcNAc(b1-6)[GlcNAc(b1-3)]Gal(b1-4)GlcNAc
# How it was run: as §1
# GlcNAc(b1-3)GalNAc = molecular target: GlcNAc(b1-3)GalNAc
# How it was run: as §1
# GlcNAc(b1-3)Man = molecular target: GlcNAc(b1-3)Man
# How it was run: as §1
# [16] = molecular target: GlcNAc(b1-3)[GlcNAc(b1-4)][GlcNAc(b1-6)]GlcNAc
# How it was run: as §1
# [17] = molecular target: GlcNAc(b1-3)[GlcNAc(b1-6)]Gal(b1-4)GlcNAc
# How it was run: as §1
# [18] = molecular target: GlcNAc(b1-3)[GlcNAc(b1-6)]GalNAc
# How it was run: as §1
# [19] = molecular target: GlcNAc(b1-4)Gal(b1-4)GlcNAc
# How it was run: as §1
# GlcNAc(b1-4)GlcNAc = molecular target: GlcNAc(b1-4)GlcNAc
# How it was run: as §1
# [20] = molecular target: GlcNAc(b1-4)GlcNAc(b1-4)GlcNAc
# How it was run: as §1
binder,measurement,setting,value
"HBHA-Rv (Mycobacterium tuberculosum), P0A5P6 (protein) MAENSNIDDIKAPLLAALGAADLALATVNELITNLRERAEETRTDTRSRVEESRARLTKLQEDLPEQLTELREKFTAEELRKAAEGYLEAATSRYNELVERGEAALERLRSQQSFEEVSARAEGYVDQAVELTQEALGTVASQTRAVGERAAKLVGIELPKKAAPAKKAAPAKKAAPAKKAAAKKAPAKKAAAKKVTQK",glycan array binding signal (z-score),[1],-0.01
same,glycan array binding signal (z-score),[2],-0.411
same,glycan array binding signal (z-score),[3],-0.372
same,glycan array binding signal (z-score),[4],-0.412
same,glycan array binding signal (z-score),[5],-0.455
same,glycan array binding signal (z-score),[6],-0.347
same,glycan array binding signal (z-score),[7],-0.458
same,glycan array binding signal (z-score),[8],-0.46
same,glycan array binding signal (z-score),[9],-0.352
same,glycan array binding signal (z-score),[10],-0.352
same,glycan array binding signal (z-score),[11],-0.445
same,glycan array binding signal (z-score),[12],-0.425
same,glycan array binding signal (z-score),[13],-0.445
same,glycan array binding signal (z-score),[14],-0.455
same,glycan array binding signal (z-score),[15],-0.384
same,glycan array binding signal (z-score),GlcNAc(b1-3)GalNAc,-0.128
same,glycan array binding signal (z-score),GlcNAc(b1-3)Man,-0.144
same,glycan array binding signal (z-score),[16],0.099
same,glycan array binding signal (z-score),[17],-0.201
same,glycan array binding signal (z-score),[18],-0.052
same,glycan array binding signal (z-score),[19],0.604
same,glycan array binding signal (z-score),GlcNAc(b1-4)GlcNAc,-0.292
same,glycan array binding signal (z-score),[20],-0.252
